Reference: publication PMC12136788
This is one part of the list.

T1: UNK ZnF1-6 (called full-length) (human, UniProt Q9C0B0 30-357)
T1 sequence: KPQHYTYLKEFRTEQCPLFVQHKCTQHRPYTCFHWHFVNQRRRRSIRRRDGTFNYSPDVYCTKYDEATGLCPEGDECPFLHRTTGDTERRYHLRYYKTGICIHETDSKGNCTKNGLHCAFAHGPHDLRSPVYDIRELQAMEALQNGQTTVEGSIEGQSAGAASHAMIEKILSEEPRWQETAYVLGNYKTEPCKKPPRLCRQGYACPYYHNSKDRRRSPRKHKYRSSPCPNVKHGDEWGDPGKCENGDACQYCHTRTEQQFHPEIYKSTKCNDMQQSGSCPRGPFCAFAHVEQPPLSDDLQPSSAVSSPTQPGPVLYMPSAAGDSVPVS

B1: ENSG00000198589:be:win_4951|CDS|ENSG00000198589|bound_else_gene|NA|bound_elsewhere_windowed (ssRNA)
RNA: GGGAGUUCUACAGUCCGACGAUCUCUCCGGAAACCAAAAAUGAUAGAGGAAAUGACUUGGACACUAAGGCUACACCGUCAGUUUCAGUUUCAAAAAACGUCAAUGUGAAAGACAUUCUCCGAAGCUUGGUUAACAUACCAGCACAACAGAGGAUUGAGCAUCA
B2: ENSG00000075711:stop:overlap|stop_codon|ENSG00000075711|stop_codon|NA|stop_codon (ssRNA)
RNA: GGGAGUUCUACAGUCCGACGAUCCAGAAAAAAUAAUGGAAAUAAAGCUCAUUAAAGGUCCUAAAGGUAUGUGGUCUUGGGUUUAGCAUUGCUGGAGGUGUUGGAAAUCAGCAUAUUCCUGGGGAUAAUAGCAUCUAUGUAACCCAACAGAGGAUUGAGCAUCA
B3: chr3:128462549:128463245:-|CDS|ENSG00000179407|control|control|control (ssRNA)
RNA: GGGAGUUCUACAGUCCGACGAUCCGGGAGUUUUUUGGUGGCCUGGACCCUUUCUCCUUUGAGUUCUGGGACAGCCCAUUCAAUAGUGACCGUGGUGGCCGGGGCCAUGGCCUGAGGGGGGCCUUCUCGGCAGGCUUUGGAGAACAACAGAGGAUUGAGCAUCA
B4: ENSG00000111696:stop:overlap|stop_codon|ENSG00000111696|stop_codon|NA|stop_codon (ssRNA)
RNA: GGGAGUUCUACAGUCCGACGAUCCCUGGUCAGAAAGGCCCCCCACCUUCGGAACCCCUCUCCUGCAGGAGGCCCAGGCCAAGUAGCCAAGGGCAAAAACUAGAAACUGUAACUGCCCCUGAUUGGGCAGGCAUGAUGGGGUUGCAACAGAGGAUUGAGCAUCA
B5: ENSG00000124766:be:win_151|CDS|ENSG00000124766|bound_else_gene|NA|bound_elsewhere_windowed (ssRNA)
RNA: GGGAGUUCUACAGUCCGACGAUCUGGUGCAAGACCCCGAGUGGGCACAUCAAGCGACCCAUGAACGCCUUCAUGGUGUGGUCGCAGAUCGAGCGGCGCAAGAUCAUGGAGCAGUCGCCCGACAUGCACAACGCCGAGAUCUCCCAACAGAGGAUUGAGCAUCA
B6: chr7:73831540:73831641:+|CDS|ENSG00000189143|msi1|total|mutant (ssRNA)
RNA: GGGAGUUCUACAGUCCGACGAUCCAAGGCCAAGACCAUGAUCGUGGCGGGCGUGGUGUUCCUGUUGGCCGGCCUUAUGGUGACCGUGCCGGUGUCCUGGACGGCCCACAACAUCAUCCAAGACUUCUACAAUCCGCUGGUGGCCAACAGAGGAUUGAGCAUCA
B7: ENSG00000198589:be:win_5451|CDS|ENSG00000198589|bound_else_gene|NA|bound_elsewhere_windowed (ssRNA)
RNA: GGGAGUUCUACAGUCCGACGAUCUUUUGCACCUUUUCUUUCUCGGACACUUUUGGGUAGCCAUGGACAAGAACUGCUUAUAGAAGGAACAAGUCUGGUUUGCAUGAAGUCGAGUAGUUCAGUUGUGGAAUUGGUUAUGCUACUCAACAGAGGAUUGAGCAUCA
B8: chrX:152971868:152971969:+|3pUTR|ENSG00000147394|unk|FALSE|unique (ssRNA)
RNA: GGGAGUUCUACAGUCCGACGAUCUUCCCUUACAGGUAUGUUGGCAUGUGUUGGAAAAUUUACACAAUUAGGUUUAAAUUCAGUAGGAUGUGAUUUUAGGAUGCUACUGAUCAAAGUGAUAUCUGUGUCUGUUGGAAUCUUGAUCAACAGAGGAUUGAGCAUCA
B9: chr11:95166718:95166819:-|3pUTR|ENSG00000149212|unk|FALSE|unique (ssRNA)
RNA: GGGAGUUCUACAGUCCGACGAUCACAGUUUCCCCUUCCUCUUUCUCUUCACAUUUACUCUUUUCAACCCAAAAUAAGAGACAUAGAAAGCAAACCACAGCCAGUUUGGCAUCUUCUCAGUGCUACUAGUAUAGGCACAUACACCAACAGAGGAUUGAGCAUCA
B10: chr15:60347444:60347559:-|3pUTR|ENSG00000182718|msi1_unk|FALSE|overlapping (ssRNA)
RNA: GGGAGUUCUACAGUCCGACGAUCUAACAGUCCCCGUGGCCAUCCCUGUGAGGGUGACGUUAGCAUUACCCCCAACCUCAUUUUAGUUGCCUAAGCAUUGCCUGGCCUUCCUGUCUAGUCUCUCCUGUAAGCCAAAGAAAUGAACAACAGAGGAUUGAGCAUCA
B11: chr14:54957033:54957204:-|CDS|ENSG00000198554|control|control|control (ssRNA)
RNA: GGGAGUUCUACAGUCCGACGAUCGCACGUUCAACUAAUAUUUUAGACAAUAUGGGCAAAUCAUCCAAGAAAUCCACUGCACUUAGUCGAACUACAAAUAAUGAAAAGUCUCCCAUUAUAAAGCCUCUGAUUCCAAAGCCGAAGCAACAGAGGAUUGAGCAUCA
B12: chr18:55226207:55226308:-|3pUTR|ENSG00000196628|unk|total|mutant (ssRNA)
RNA: GGGAGUUCUACAGUCCGACGAUCAUUUUUACAGCCACACAAUUCUUGGCAUGUAUUAAGAAAAAAAAAAAUCCCUGUUCAAGCCGUUUUUCCACCUAUCAGCACUGAGUAAAUGCCAUAAAUCCAUUGAAAUGGUCUAAAUGUCAACAGAGGAUUGAGCAUCA
B13: chr10:113876644:113876745:+|CDS|ENSG00000196865|msi1|total|mutant (ssRNA)
RNA: GGGAGUUCUACAGUCCGACGAUCGGUUAAUGAUGCAGAUGCCAGCCUUUGGCAAGAACCCGAAGUUUCCUGCUGGCCAACUCCCGUCAUACUUGGACCUCGUGGAAACAUGUUGUUUUCUUUGAUUGGAGAGGGACACAAAGACAACAGAGGAUUGAGCAUCA
B14: chr18:3066806:3067261:-|three_prime_utr|ENSG00000101605|control|control|control (ssRNA)
RNA: GGGAGUUCUACAGUCCGACGAUCAUGACACUUUAAUUGUUUUUCUUUAUCUACAAAAUUAUGUGUUAAGAAAAUACCAUUCAUAGCAUGAAGAUUAGGAAACAGUUUUAAGGAGAAGACUUGAAUGAAGUUGGAGGGACAUUGCAACAGAGGAUUGAGCAUCA

Each binder was assayed against T1, UNK ZnF1-6 (called full-length) (assay: nsRBNS (natural sequence RNA bind-n-seq); RBNS binding buffer (assumed for nsRBNS): 25 mM Tris pH 7.5, 150 mM KCl, 3 mM MgCl2, 0.01% Triton X-100, 500 ug/ml BSA, 20 U/ml SUPERase-In, 4 C; UNK is unkempt and MSI1 is Musashi-1; names of the RNAs are library labels; protein concentration not given here; high values mean tight binding).

Which binding signal does the source give for B1 here?
Its binding signal is 0.333 enrichment R.

B2 was tested. Which binding signal did it give?
The binding signal was 0.524 enrichment R.

How did the binding signal turn out when B3 was run?
Its binding signal is 1.07 enrichment R.

Which binding signal does the source give for B4 here?
Its binding signal is 0.762 enrichment R.

B5 was tested. Which binding signal did it give?
The binding signal was 0.504 enrichment R.

How did the binding signal turn out when B6 was run?
Its binding signal is 0.537 enrichment R.

B7 was tested. Which binding signal did it give?
Its binding signal is 0.579 enrichment R.

Which binding signal does the source give for B8 here?
The binding signal was 1.17 enrichment R.

How did the binding signal turn out when B9 was run?
Its binding signal is 1.07 enrichment R.

With B10 as the binder, how does the binding signal read?
The binding signal was 1.57 enrichment R.

How did the binding signal turn out when B11 was run?
The binding signal was 1.02 enrichment R.

For B12, which binding signal is on record?
The binding signal was 0.431 enrichment R.

Which binding signal does the source give for B13 here?
Its binding signal is 0.577 enrichment R.

How did the binding signal turn out when B14 was run?
The binding signal was 0.704 enrichment R.
